# According to a collection of fitness landscapes (doi:10.1126/science.1257360):
# This is one part of the list.
# B1: PhoQ; a variant is named by its letters at X, in order, P23837 (parent)
# chain: MKKLLRLFFPLSLRVRFLLATAAVVLVLSLAYGMVALIGYSVSFDKTTFRLLRGESNLFYTLAKWENNKLHVELPENIDKQSPTMTLIYDENGQLLWAQRDVPWLMKMIQPDWLKSNGFHEIEADVNDTSLLLSGDHSIQQQLQEVREDDDDAEMTHSVAVNVYPATSRMPKLTIVVVDTIPVELKSSYMVWSWFIYVLSANLLLVIPLLWVAAWWSLRPIEALAKEVRELEEHNRELLNPATTRELTSLVRNLNRLLKSERERYDKYRTTLTDLTHSLKTPLXXLQXXLRSLRSEKMSVSDAEPVMLEQISRISQQIGYYLHRASMRGGTLLSRELHPVAPLLDNLTSALNKVYQRKGVNISLDISPEISFVGEQNDFVEVMGNVLDNACKYCLEFVEISARQTDEHLYIVVEDDGPGIPLSKREVIFDRGQRVDTLRPGQGVGLAVAREITEQYEGKIVAGESMLGGARMEVIFGRQHSAPKDE
# Variants of: B1
# Assay: enrichment ratio after two sorts for PhoP signalling (ratio (wild type AVST 3.29)); higher = more functional
# Conditions: with PhoP (E. coli)
row,Variant,enrichment ratio
1,ANHE,≤ 0.25
2,SYEV,≤ 0.25
3,GYEG,≤ 0.25
4,KIAG,≤ 0.25
5,KCCA,≤ 0.25
6,QPIY,≤ 0.25
7,AALI,11.9
8,NAPI,≤ 0.25
9,HTGD,≤ 0.25
10,RKHT,≤ 0.25
11,IFMI,≤ 0.25
12,VLRH,≤ 0.25
13,ARQN,≤ 0.25
14,DFLR,≤ 0.25
15,PDKC,≤ 0.25
16,VWAH,≤ 0.25
17,YPNW,≤ 0.25
18,MVQW,≤ 0.25
19,MHNV,≤ 0.25
20,TPAC,≤ 0.25
21,KFFT,≤ 0.25
22,MDEL,≤ 0.25
23,KTTP,≤ 0.25
24,KIYC,≤ 0.25
25,YTWD,≤ 0.25

row,Variant,enrichment ratio
1,QHWF,≤ 0.25
2,TNWA,≤ 0.25
3,RKPI,≤ 0.25
4,WMWP,≤ 0.25
5,QVIF,≤ 0.25
6,STDG,≤ 0.25
7,MNTI,13.1
8,IMFT,≤ 0.25
9,MFPN,≤ 0.25
10,FFHA,≤ 0.25
11,DYDL,≤ 0.25
12,YSDV,≤ 0.25
13,HRIT,≤ 0.25
14,TSTV,26.5
15,KTMN,≤ 0.25
16,RPKI,≤ 0.25
17,LSLV,5
18,NDQK,≤ 0.25
19,QDSV,≤ 0.25
20,SSHY,≤ 0.25
21,FFIQ,≤ 0.25
22,FRHK,≤ 0.25
23,PHYY,≤ 0.25
24,DQFM,≤ 0.25
25,VQEM,≤ 0.25

row,Variant,enrichment ratio
1,GPLA,≤ 0.25
2,AGWH,≤ 0.25
3,FEVL,1.99
4,AYSN,≤ 0.25
5,LKWH,≤ 0.25
6,VPSF,≤ 0.25
7,APFL,≤ 0.25
8,GRVP,≤ 0.25
9,VFIA,≤ 0.25
10,PRVF,≤ 0.25
11,YQLC,≤ 0.25
12,NRAD,≤ 0.25
13,NSSG,≤ 0.25
14,QGAI,3.08
15,RFCF,≤ 0.25
16,RVWE,≤ 0.25
17,NAPE,≤ 0.25
18,ESPL,≤ 0.25
19,INMN,≤ 0.25
20,ATLS,10.6
21,LRVN,≤ 0.25
22,PHVM,≤ 0.25
23,EIMA,≤ 0.25
24,GSQV,≤ 0.25
25,AHQK,≤ 0.25

row,Variant,enrichment ratio
1,WKTI,≤ 0.25
2,YRNG,≤ 0.25
3,VYLM,≤ 0.25
4,YGIV,≤ 0.25
5,WTHC,≤ 0.25
6,FSQL,≤ 0.25
7,NIFY,≤ 0.25
8,NKTC,≤ 0.25
9,HRHH,≤ 0.25
10,HIRS,≤ 0.25
11,FSTL,4.4
12,GADW,≤ 0.25
13,ACVH,≤ 0.25
14,TESQ,22.8
15,MGAF,≤ 0.25
16,SSDV,≤ 0.25
17,NWHH,≤ 0.25
18,IYFC,≤ 0.25
19,YRQA,≤ 0.25
20,LTAY,≤ 0.25
21,PMNV,≤ 0.25
22,IGTM,≤ 0.25
23,DYVN,≤ 0.25
